Measured values: publication PMC10380868, “Trapa bispinosa Roxb. Pericarp Extract Exerts 5α-Reductase Inhibitory Activity in Castrated Benign Prostatic Hyperplasia Model Mice” (International Journal of Molecular Sciences, 2023)

Tested on: AR-Luc/LNCaP cells
Format: cell-based

Row | Compound | inhibition of DHT-induced AR-Luc reporter activity | inhibition of testosterone-induced AR-Luc reporter activity | stimulation of AR-Luc reporter activity by agonist | time to maximal AR-Luc reporter activity [h]
1 | O=c1oc2c(O)c(O)cc3c(=O)oc4c(O)c(O)cc1c4c23 [EA, ellagic acid] | suppressed to control levels | – | – | –
2 | CC(C)C(=O)Nc1ccc([N+](=O)[O-])c(C(F)(F)F)c1 [Flu, flutamide] | completely | completely | – | –
3 | C[C@]12CC[C@H]3[C@@H](CCC4=CC(=O)CC[C@@]43C)[C@@H]1CC[C@@H]2O [testosterone] | – | – | delayed stimulation | 24
4 | CC(C)(C)NC(=O)[C@H]1CC[C@H]2[C@@H]3CC[C@H]4NC(=O)C=C[C@]4(C)[C@H]3CC[C@]12C [Fin, finasteride] | – | suppressed | – | –
